This is one part of the list. The full chains were built here from the parent and the listed change. Inactive controls read about 0.05.
B1: TEV protease; numbered along this chain (parent)
chain: MGESLFKGPRDYNPISSSICHLTNESDGHTTSLYGIGFGPFIITNKHLFRRNNGTLVVQSLHGVFKVKDTTTLQQHLVDGRDMIIIRMPKDFPPFPQKLKFREPQREERICLVTTNFQTKSMSSMVSDTSCTFPSGDGIFWKHWIQTKDGQCGSPLVSTRDGFIVGIHSASNFTNTNNYFTSVPKNFMELLTNQEAQQWVSGWRLNADSVLWGGHKVFMVKPEEPFQPVKEATQL

Variants of: B1
Assay: raw area under fraction-flipped curve 0-4 h after induction (AUC4h, not background-subtracted), DNA-recorder readout of cleavage of the substrate (dimensionless); higher = more cleavage of the substrate by the protease variant
Conditions: temperature: 34 °C; time window: 0-4 h after rhamnose induction
Procedure: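 In vivo DNA recorder in E. coli TOP10(DE3) ΔrhaA at 34 °C. Each TEVp single-site mutant (parent TEVp 0) is paired with a single-site variant of the 7-mer TEVs (canonical ENLYFQ|S). The substrate sits between flexible linkers in a Bxb1-sfGFP-TEVs-SsrA fusion, so cleavage stabilises Bxb1 and speeds flipping of a recombination array, read by NGS. The value is the raw area under the fraction-flipped curve over 0-4 h after rhamnose induction (AUC4h), with ≥20 reads per time point. It is not background-subtracted; inactive controls average about 0.047.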
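Also: Bxb1 expression induced with 0.2% (w/v) L-rhamnose at OD600 near 0.5, cultures sampled hourly, flipped fraction per protease–substrate barcode pair counted by paired-end Illumina sequencing.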

Variant | area with substrate ENAYFQS | area with substrate ENCYFQS | area with substrate ENDYFQS | area with substrate ENEYFQS | area with substrate ENMYFQS | area with substrate ENNYFQS | area with substrate ENPYFQS | area with substrate ENQYFQS | area with substrate ENTYFQS | area with substrate ENVYFQS
S171Y | 0.0704 | 0.0666 | 0.0728 | 0.0592 | 0.0632 | 0.0441 | 0.0638 | 0.0953 | 0.0581 | 0.0612
S171I | 0.064 |  |  |  |  |  |  | 0.0416 |  | 
L205S | 0.0432 |  | 0.0395 | 0.0711 |  |  |  |  |  | 
W199Y | 0.0575 |  |  |  | 0.0864 | 0.071 |  | 0.0513 | 0.0863 | 0.0636
W199S | 0.0899 |  | 0.0379 | 0.0722 |  | 0.0553 |  | 0.0609 | 0.0637 | 
Q198G | 0.0602 |  | 0.0696 |  |  |  | 0.0545 | 0.0557 | 0.0647 | 0.0842
Q198S | 0.0549 | 0.0731 | 0.0626 | 0.0656 |  |  |  | 0.0599 | 0.0622 | 0.0635
Q194C | 0.0906 | 0.0649 | 0.0995 | 0.0603 |  | 0.0472 | 0.0711 | 0.0593 | 0.0513 | 0.0806
Q194W | 0.0064 | 0.0607 | 0.0588 | 0.054 | 0.0805 | 0.0579 | 0.0458 |  | 0.0667 | 0.074
Q194A | 0.067 |  | 0.0399 |  |  | 0.0479 |  | 0.0642 | 0.0551 | 0.0724
P155G | 0.0521 | 0.0625 | 0.0447 | 0.0565 |  | 0.0569 | 0.0746 | 0.0466 | 0.0564 | 0.0484
T174C | 0.0567 |  | 0.0561 | 0.0538 | 0.0663 |  | 0.0671 | 0.0635 | 0.0599 | 0.0707
N172P | 0.0667 |  | 0.0636 | 0.0666 |  |  |  | 0.0812 |  | 0.0605
N172A | 0.0512 | 0.0527 |  |  |  |  |  | 0.0459 |  | 0.0554
N172V | 0.0589 | 0.0744 | 0.0651 | 0.0587 |  |  |  | 0.0675 |  | 0.0477
N172H | 0.0471 | 0.0607 | 0.0483 |  |  |  | 0.0214 | 0.0597 |  | 
A196V | 0.0512 |  |  | 0.0482 |  | 0.066 |  | 0.082 |  | 
E195P | 0.0673 |  | 0.0636 |  |  |  |  | 0.0687 |  | 
E195L | 0.0588 |  |  | 0.0475 |  |  |  |  |  | 

Same assay, conditions: temperature: 34 °C; time window: 0-4 h after rhamnose induction

Variant | area with substrate ENWYFQS | area with substrate ENYYFQS | area with substrate ENFYFQS | area with substrate ENIYFQS | area with substrate ENRYFQS | area with substrate ENSYFQS | area with substrate ENHYFQS | area with substrate ENGYFQS | area with substrate ENKYFQS
S171Y | 0.0346 | 0.0571 |  |  |  |  |  |  | 
S171I |  |  | 0.0593 | 0.0565 | 0.0712 | 0.0544 |  |  | 
L205S |  |  | 0.0765 |  |  |  |  |  | 
W199Y | 0.0689 |  |  |  |  | 0.0746 |  |  | 
W199S |  |  |  |  |  | 0.0639 | 0.0689 |  | 
Q198G |  |  |  |  |  | 0.0619 | 0.0488 | 0.0444 | 
Q198S |  |  | 0.0651 |  | 0.0545 | 0.0535 | 0.0593 | 0.0608 | 
Q194C |  |  |  | 0.12 |  | 0.0549 | 0.0714 |  | 0.0583
Q194W |  | 0.0627 |  |  | 0.0659 |  |  |  | 0.067
Q194A |  |  | 0.0516 |  |  |  |  | 0.0695 | 
P155G |  |  | 0.0462 | 0.064 | 0.0464 |  |  | 0.0526 | 
T174C |  |  | 0.0595 | 0.0997 | 0.0343 | 0.0477 | 0.0607 |  | 0.0615
N172P | 0.0073 |  |  |  |  | 0.0663 |  | 0.0706 | 0.0568
N172A |  |  |  | 0.0626 | 0.0613 |  | 0.0458 |  | 0.0763
N172V | 0.0479 |  | 0.0515 |  |  |  | 0.0793 |  | 
N172H |  |  |  |  | 0.0894 |  |  | 0.0541 | 
A196V |  | 0.0572 |  |  |  |  |  | 0.0523 | 
E195P |  |  | 0.0657 |  |  |  |  |  | 
E195L |  |  |  |  |  | 0.0453 | 0.0553 | 0.0545 | 

— the supplement of paper PMC12217912
